Data from PMC4336329 (PLoS ONE, 2015).
The campaign covered roughly 310,000 compounds. About 14,000 (4.5%) showed an effect of 50% or more. The effect is printed as a negative number. This is one part of the list.

Target: human ether-à-go-go-related gene (hERG) potassium channel (human, UniProt Q12809)
Experiment: primary screen, population patch clamp on CHO cells stably expressing hERG
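Further: peak tail current of the secondary pulse compared with the same well before compound.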

human ether-à-go-go-related gene (hERG) potassium channel, sequence (Q12809 whole entry, looked up): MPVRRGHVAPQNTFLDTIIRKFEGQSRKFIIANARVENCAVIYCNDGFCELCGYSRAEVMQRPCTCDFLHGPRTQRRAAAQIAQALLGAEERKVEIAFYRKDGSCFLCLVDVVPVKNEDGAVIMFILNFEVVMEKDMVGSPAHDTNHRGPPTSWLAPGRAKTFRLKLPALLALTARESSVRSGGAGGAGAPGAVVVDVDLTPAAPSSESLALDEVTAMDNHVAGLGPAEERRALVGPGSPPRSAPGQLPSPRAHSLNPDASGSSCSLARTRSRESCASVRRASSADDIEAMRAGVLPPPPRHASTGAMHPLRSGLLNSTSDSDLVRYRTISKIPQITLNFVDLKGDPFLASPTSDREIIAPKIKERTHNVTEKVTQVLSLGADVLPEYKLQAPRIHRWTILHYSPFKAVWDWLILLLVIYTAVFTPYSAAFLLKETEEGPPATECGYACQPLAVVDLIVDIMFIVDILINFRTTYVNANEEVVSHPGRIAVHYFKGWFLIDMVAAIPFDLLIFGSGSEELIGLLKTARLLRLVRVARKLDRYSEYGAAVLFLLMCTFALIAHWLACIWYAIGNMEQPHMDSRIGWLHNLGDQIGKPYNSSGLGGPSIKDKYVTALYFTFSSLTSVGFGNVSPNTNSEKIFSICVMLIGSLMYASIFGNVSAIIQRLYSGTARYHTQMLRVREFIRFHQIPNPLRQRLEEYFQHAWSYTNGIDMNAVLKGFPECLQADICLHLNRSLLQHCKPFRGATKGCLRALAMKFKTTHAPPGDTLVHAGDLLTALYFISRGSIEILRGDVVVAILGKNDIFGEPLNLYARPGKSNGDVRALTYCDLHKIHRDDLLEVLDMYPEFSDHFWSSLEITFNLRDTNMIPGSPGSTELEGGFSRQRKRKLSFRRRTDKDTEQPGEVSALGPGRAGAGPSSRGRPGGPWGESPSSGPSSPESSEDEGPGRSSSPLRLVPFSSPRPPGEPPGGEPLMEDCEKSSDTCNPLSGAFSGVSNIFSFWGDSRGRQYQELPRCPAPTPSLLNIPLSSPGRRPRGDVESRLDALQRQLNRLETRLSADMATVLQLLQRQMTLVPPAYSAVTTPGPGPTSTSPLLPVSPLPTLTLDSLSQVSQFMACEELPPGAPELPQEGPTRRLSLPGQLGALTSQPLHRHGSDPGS

Structure (SMILES)	hERG current change (%, negative = inhibition) at 10uM [%]
Cc1ccc(C(=O)N/C(=C\c2ccco2)C(=O)N2CCCCC2)cc1	-11.1
O=C(c1ccc(N2CCCC2)c([N+](=O)[O-])c1)N1CCc2ccccc2C1	-27.7
CC(C)(C)C(=O)Nc1ccc(S(=O)(=O)c2ccc(NC(=O)C(C)(C)C)cc2)cc1	18.6
COc1ccc(S(=O)(=O)CCc2nc3ccccc3s2)cc1	4.84
COc1ccc(CCNC(=O)CN(c2cc(OC)ccc2OC)S(=O)(=O)c2ccccc2)cc1	5.89
CC(C)(C)c1ccc(C(=O)NCCOc2ccccc2F)cc1	7.61
CCCCN1C(=O)C(=O)N(CC(=O)Nc2sc(C)c(C)c2C(=O)OC)C1=O	8.28
Cc1ccc(NC(=O)NCc2cccn2C)cc1C	17.1
O=S1(=O)CCC(NC(=S)N2CCCCCC2)C1 (centres unmarked)	4.39
CCN1CCN(C(=O)/C=C/c2ccc(OC)c(OC)c2)CC1	19.7
Cc1cnc(NC(=O)c2ccc3c(c2)OCCO3)s1	3.14
Cc1cc(C)nc(Nc2cccc(C(F)(F)F)c2)n1.Cl	10.8
CCCCCC(=O)NCc1c(C(F)(F)F)nn(C)c1N1CCOCC1	12.8
CCC/S(CC1CC1(Cl)Cl)=N\S(=O)(=O)c1ccc(C)cc1 (centres unmarked)	-6.62
COc1ccc(C2C=C(c3ccccc3)Nc3nc(CCCO)nn32)cc1 (centres unmarked)	-51.8
Cc1cc(C)n2nc(C(=O)NCCc3ccccc3)nc2n1	1.19
COC(=O)c1cc(S(=O)(=O)N2CCCC2=O)c(Cl)cc1Cl	13.1
CC1(C)Cc2cccc(Oc3ccc(S(=O)(=O)N4CCCC4)cn3)c2O1	-46.5
COc1cccc(C(=O)OCC(=O)c2ccc(Br)s2)c1OC	-0.224
N#Cc1cccc(NC(=O)COC(=O)CCc2nc3ccccc3c(=O)[nH]2)c1	9.14
CCOC(=O)C(C(=O)OCC)N(C#N)c1nc(OC)nc(N(C)C)n1	-4.52
Cc1ccn2c(=O)nc(SCc3cccc(C(F)(F)F)c3)nc2c1	-51.5
CCOc1ccc(S(=O)(=O)Nc2nc3cc(OC)ccc3s2)cc1	3.87

Structure (SMILES)	hERG current change (%, negative = inhibition) at 10uM [%]
C#CCSc1nnc(-c2cc3c(C(F)(F)F)nn(C)c3s2)n1C	5.79
Fc1ccccc1NC(=S)N1CCOCC1	16.6
CC(C)(CNC(=O)c1ccccc1NS(C)(=O)=O)N1CCCCC1	-7.99
COC(=O)c1cc(C(=O)NNC(=O)c2ccc3c(c2)OCO3)cc([N+](=O)[O-])c1	-7.98
Cc1ccc(C(=O)OCC(=O)c2ccc(CC(=O)N3CCOCC3)s2)cc1C	-31.2
O=C(NCCc1ccccc1)c1cccc([N+](=O)[O-])c1	-0.253
CCC/C=C(\CCC)C(NC(=O)c1ccc(C(F)(F)F)cc1)c1ccccc1 (centres unmarked)	16.7
Cc1cccc(NC(=O)c2nc(-c3ccccc3)n(-c3ccccc3)n2)c1C	-21.8
COc1cccc(-c2ncc3ccccc3c2COC(=O)c2ccco2)c1	15
O=C(NCc1ccccc1Cl)c1ccc(S(=O)(=O)Nc2cccc(C(F)(F)F)c2)cc1	3.51
Cc1ccc(OC(C)C(=O)Nc2ccccc2C(=O)N2CCN(C)CC2)cc1 (centres unmarked)	-5.11
Cc1ccc(CS(=O)(=O)CCC(=O)NCCCOC(C)C)cc1	5.17
NS(=O)(=O)c1ccc(NC(=O)CSc2nc3ccccc3[nH]2)cc1	-10.2
COc1ccc(S(=O)(=O)NCc2ccccn2)cc1Cl	-6.63
CCO/C(C)=C1\C(=O)N(CC)c2ccccc21	-1.64
CCC(C(=O)NC1CCCC1)N(C(=O)Cn1nnc(-c2ccc(OC)c(OC)c2)n1)C1CCCCC1 (centres unmarked)	-19.8
CCOC(=O)N1CCC(NC(=O)c2cccs2)CC1	6.2
COc1ccc(NC(=O)CCNS(=O)(=O)c2ccc3c(c2)CCC(=O)N3)cc1	-2.85
COCCCN(C(=O)c1ccccc1F)c1nc(-c2ccc(OC)cc2)cs1	8.7
CCC1(CC)C(=O)N=C2c3ccccc3C(=O)N21	-1.48
Cc1ccccc1N1CCN(S(=O)(=O)c2nnc(NC(=O)CC(C)C)s2)CC1	24.3
CCCOc1ccc(N2C(=O)CC(SC(=NC)Nc3ccc(F)cc3)C2=O)cc1 (centres unmarked)	16.6
C/C(=N\Nc1ccccc1[N+](=O)[O-])c1ccccc1O	21.6

Structure (SMILES)	hERG current change (%, negative = inhibition) at 10uM [%]
CCc1nnc(NC(=O)C2CC(=O)N(Cc3ccco3)C2)s1 (centres unmarked)	8.68
CCN(CC(=O)Nc1ccc(NC(C)=O)cc1)C(=O)c1cc2c(s1)CCCCC2	-2.2
CC1(C)CC(=O)C2=C(C1)OC(N)=C(C#N)C21CCN(Cc2ccccc2)CC1	1.93
C=CCn1c(SC(C)C(=O)NCc2ccc3c(c2)OCO3)nnc1C1CCCCC1 (centres unmarked)	-11.8
COC(=O)c1ccccc1-c1cn(C)c2ccccc2c1=O	15.7
CC(=O)SCC(C)C(=O)NCc1ccccc1 (centres unmarked)	22.1
CCn1c(/N=C/c2c[nH]c3ccccc23)nc2ccccc21	8.73
COc1ccccc1-n1c(COc2ccccc2-c2ccccc2)nnc1SCC(=O)c1c(N)n(C)c(=O)n(C)c1=O	10.7
O=[N+]([O-])c1ccccc1S(=O)(=O)Oc1ccc(/C=N/n2cnnc2)cc1	-40.6
CC(=O)c1ccc(OCC(=O)OC(C)C(=O)NC2CCCCC2)cc1 (centres unmarked)	-2.93
O=C(Nc1ccc(C(=O)O)cc1)/C(=C\c1ccccc1)NC(=O)c1ccccc1	11.7
O=C(CSc1nncs1)Nc1nccs1	13.1
CCN(CC)CCCNC(=S)N(CCO)Cc1cc2cc3c(cc2[nH]c1=O)OCCO3	12.7
CC(C)N1C(=O)S/C(=C/c2ccc(Sc3nc4ccccc4[nH]3)o2)C1=O	-0.151
CC(C)N1CCN(Cc2cc3c(cc2Cl)OCO3)CC1CCO (centres unmarked)	-2.34
Cc1ccc(NC(=O)c2ccc(Cn3cc(Cl)cn3)o2)c(C)c1	-13.5
Cc1ccn2cc(C(=O)NCc3ccco3)nc2c1	14.8
O=C1C=CC(=O)N1c1ccc(N2CCCCC2)cc1	5.29
Cc1cc(Cl)ccc1C(=O)C1CCCN(C(=O)CCn2cncn2)C1 (centres unmarked)	-28.4
COc1ccc(CN(N=O)C2CC(=O)N(c3ccc(OC)cc3)C2=O)cc1 (centres unmarked)	-1.04
N#CC[C@H](Cc1ccccc1)N1CCN(CCc2ccccc2)CCC1=O	16.5
CCC(C)(C)n1nnnc1C(c1ccc(OC)c(OC)c1)N1CCN(c2cccc(OC)c2)CC1 (centres unmarked)	-8.2
CC(=O)NC1C(OCCOc2ccc(Cl)cc2C)OC(CO)C(O)C1O (centres unmarked)	14.4

Structure (SMILES)	hERG current change (%, negative = inhibition) at 10uM [%]
COc1ccc(C/C(C)=N/NC(=O)C2COc3ccccc3O2)cc1 (centres unmarked)	25.7
CC(C)(C)NC(=O)c1cc(Cl)ccc1[N+](=O)[O-]	-10.5
C=CCN1C(=O)/C(=C\c2ccc(Oc3nc(N4CCOCC4)nc(N4CCOCC4)n3)c(OC)c2)SC1=S	15.9
Cc1cccc(C(=O)Nc2ccc3c(c2)C(=O)N(CC(C)C)C3=O)c1	23.1
O=C(NCc1ccco1)c1cc(-c2ccccc2)nn1CC1CC(c2cccnc2)=NO1 (centres unmarked)	-63.9
Cc1cc(Cl)ccc1OCCCC(=O)NNC(=O)c1ccncc1	-30.2
COc1cc(-c2noc(CCC(=O)NC3CCCC3)n2)cc(OC)c1OC	-3.14
CCOc1cc2[nH]c(=O)n(CCCC(=O)NCc3ccc(OC)cc3)c(=O)c2cc1OCC	8.71
COCCn1c(-c2ccc(Cl)cc2)nc2c(c(=O)c3ccccc3n2C)c1=O	-9.44
Cc1ccc(C(=O)NCCNc2nc3cc(C)c(C)cc3cc2C)cc1	-4.44
CC1(C)CC2(CC(c3ccccc3)c3ccc(O)cc3O2)NC(=S)N1 (centres unmarked)	16.7
COc1ccc(N(CC(=O)NC2CCCCC2)C(=O)CNC(=O)c2ccco2)c(OC)c1	-12
COc1ccccc1N1CCN(C(=O)CSc2nnc(NC(=O)C3CC3)s2)CC1	3.69
COc1ccc2[nH]c(=O)c(CN(c3ccc(C)c(C)c3)S(C)(=O)=O)cc2c1	12.9
COCCn1c(C)cc(C(=O)CSc2ccc3ccccc3n2)c1C	-0.727
CCCCC(=O)Nc1c(O)c2ccccc2[nH]c1=O	-0.31
CCOC(=O)CC1(NC(=O)c2cc(COc3cccc(OC)c3)on2)CCCCC1	-0.0539
CC(=O)Nc1ccccc1C(=O)OCc1cccc(F)c1	2.12
Cc1cc(C=O)c(O)cc1O	9.9
Nc1nc(SCC(=O)NN(c2ccccc2)c2ccccc2)n[nH]1	-1.91
